± gives the standard deviation of the averaged measurements. Some of the results follow.

This test deals with PfAP2-LT AP2 domain (GST-tagged). As to the kind of experiment: gcPBM binding intensity (ln(normalized median fluorescence intensity)); higher = stronger DNA binding. A digest of the protocol: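 Probes on an Agilent 4 × 180k array were primer-extended, double-stranded and 36 bp long, taken from intergenic genomic regions, with negative controls added. GST-tagged P. falciparum DNA-binding domains from E. coli, about 25 μg on average, were applied to the array for 1 h in 1× PBS containing 1% milk, 0.2 mg/ml BSA, 0.5% salmon testes DNA and 0.03% Triton X-100. Binding intensity, obtained after Alexa488 anti-GST antibody detection and a 488 nm scan, is the highest Masliner-normalised natural-log median intensity across replicate spots of either probe orientation.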
“ATCATTTTTAAAGGAACACACAAAAAAAATTAGAAT [CACACA_site1370]”: the “gcPBM binding intensity (ln)” value stood at 8.78 ± 0.52.

Turning to “ATTATTTTTTTTGTTACACACATGACTTATTTTTAT [CACACA_site3228]”, the “gcPBM binding intensity (ln)” value is 9.21 ± 0.44.

As for “TAGTCGTTTTTTTAATGTACTCACGCATAATATAAT [XGTACX_site6499]”, the “gcPBM binding intensity (ln)” value worked out at 8.97 ± 0.29.

As for “TTAATTATAAGAAAAAGTACTCATTACATTATAGAA [XGTACX_site678]”, the “gcPBM binding intensity (ln)” value came out at 8.37 ± 0.47. Take “ATATAAATATTCCACACACACACAAAAAAAAAAAAA [CACACA_site7678]”: the “gcPBM binding intensity (ln)” value was found to be 9.73 ± 0.24. On to “CATACATACCTATATACACACATATAAAATAATATA [CACACA_site7290]”, for which the “gcPBM binding intensity (ln)” value was determined as 9.18 ± 0.4.

For the sequence “AGTATACAGATATATACACACATATTTATATTTATA [CACACA_site6394]”, the “gcPBM binding intensity (ln)” value came out at 9.04 ± 0.35. Then “TCTATATGTTGATTCACACATAAAGAATAAATAAAA [CACACA_site6017]”, with 8.65 ± 0.51; and “TGTTATTATTTGTACACACACATATATATCCTTGTT [CACACA_site3616]”, with 9.71 ± 0.38.

For the sequence “GGCAACATTTGAAACACACACACATACAAACAAACA [CACACA_site3307]”, the “gcPBM binding intensity (ln)” value is 9.86 ± 0.47. Then “TATAATATATTATATACACACATTATGAAATCCACA [CACACA_site1330]”, with 8.96 ± 0.35; and “AACACGCGCAGACACACACACACACCCACATATATA [CACACA_site2205]”, with 10.3 ± 0.27. Then “TATATGAACTTATATACACACCATTTTTGTAAATCT [CACACA_site4547]”, with 8.83 ± 0.4. As for “ATAAATATATTTTATAGTACATAAATATCAAAAAAA [XGTACX_site2334]”, the “gcPBM binding intensity (ln)” value was 8.54 ± 0.54. With ATTTTGATGCATGGGTTGCACTAACTTTTGCCCAGA, the “gcPBM binding intensity (ln)” value worked out at 8.68 ± 0.51. Take “AAACAATACTGATATTGTACATAATAAAAAAAAATA [XGTACX_site3330]”: the “gcPBM binding intensity (ln)” value amounted to 8.84 ± 0.41. The value for “TTTTTTTTTTTAAATAGTACACATATATATATATAT [XGTACX_site6983]” was 8.86 ± 0.26. The value for “TATACCTATAGACACACACACATAAATAGATATATA [CACACA_site6748]” was 9.66 ± 0.33; that for “AAAAAAAAAAAAAAAAGTACAAAAAAAAAAAAAAAA [XGTACX_site4549]” was 8.3 ± 0.33. Regarding “TTTTATTTTTCTAGTAGTACTTCTTTTTATAATATA [XGTACX_site1181]”, the “gcPBM binding intensity (ln)” value came to 8.61 ± 0.6. “AGTTTACACCTTGTGAGTACATACATACATATATAT [XGTACX_site8793]”: the “gcPBM binding intensity (ln)” value was 9.17 ± 0.48. Then “TTAACATTTTAAAAATGTACATTTATATACATAAAT [XGTACX_site922]”, with 8.46 ± 0.41; and “AGAAAAATTCTAAGAACATGCAAAAAAATAAAAAAA [TGCATGCA_site293]”, with 8.71 ± 0.61. The value for “TCTAATGTAATGCATACACACAACTATCCATCAAAA [CACACA_site534]” was 8.97 ± 0.3. Consider “AAAAAATAAATAAATATACACACCATATATATATTT [CACACA_site2854]”, for which the “gcPBM binding intensity (ln)” value was found to be 8.89 ± 0.35.

Source of the values: the supplement of paper PMC11417369.
